Each structure is given as a SMILES string. Values after ≈ are worked out from the molar mass of the structure shown.

This assay deals with Anthracnose of cucumber (Colletotrichum lagenarium). Briefly: microbe, parasite or virus in culture. The following applies: Colletotrichum orbiculare, 48 h, read-out: Minimum Inhibitory Concentration.

For `CCC1OC(OC)C=C(CN2CCNCC2)C1=O` (centres unmarked) [Compound 1, 6-ethyl-2-methoxy-4-piperazinomethyl-5-oxo-5,6-dihydro-2H-pyran], the MIC turned out to be 50 µg/mL (≈ 197 µM).

As for `CCOC1C=C(CN2CCOCC2)C(=O)C(C(C)C)O1` (centres unmarked) [Compound 2, 6-isopropyl-2-ethoxy-4-morpholinomethyl-5-oxo-5,6-dihydro-2H-pyran], the MIC is 100 µg/mL (≈ 353 µM).

Source of the values: patent publication US4334066A (priority 1981, dated 1982).
